Assay results as given in US10941208B2, “Anti-MUC16 antibodies” (Regeneron Pharmaceuticals, Inc., priority 2016, dated 2021).

How the values were obtained:
Cynomolgus T cells (CD3) = molecular target: T1, Cynomolgus T cells (CD3) (Macaca fascicularis, UniProt Q95LI5+Q95LI8); test: FACS binding titration on cynomolgus T cells; conditions: Table 7B experiment
T1 construct: cynomolgus monkey cells expressing cynomolgus CD3; endogenous in cells; host or cells: primary cynomolgus T cells
Source text: (§1) B. In separate experiments with analogous conditions to that described above, flow cytometric analysis (or FACS) was utilized to determine binding of select bispecific antibodies to Jurkat cells, PEO-1, OVCAR3-Luc and cynomolgus T cells. For the titration analysis, serial dilution of selected MUC16×CD3 bispecific antibodies, a first isotype control antibody (a human chimeric IgG4 antibody that binds an irrelevant human antigen with no cross-reactivity to human or cynomolgus CD3) and a second isotype control antibody (a human chimeric IgG4 antibody that binds an irrelevant human antigen with no cross-reactivity to human MUC16), ranging from 66.6 nM to 0.001 nM.
(§2) For FACS analysis, cells were gated by forward scatter height vs. forward scatter area for single events selection, followed by side and forward scatters. The EC50 for cell binding titration was determined using PRISM™ software (GraphPad Software, Inc., La Jolla, Calif.). Values were calculated using 4-parameter non-linear regression analysis. (Liu, J., et al. 2005, Biotechnol Letters 27:1821-1827).

[1] = molecular target: T2, Jurkat cells (human CD3-expressing) (Homo sapiens, UniProt P04234+P07766); test: FACS binding titration on Jurkat cells
T2 construct: endogenous in cells; host or cells: Jurkat
T2 sequence (P07766 23-207): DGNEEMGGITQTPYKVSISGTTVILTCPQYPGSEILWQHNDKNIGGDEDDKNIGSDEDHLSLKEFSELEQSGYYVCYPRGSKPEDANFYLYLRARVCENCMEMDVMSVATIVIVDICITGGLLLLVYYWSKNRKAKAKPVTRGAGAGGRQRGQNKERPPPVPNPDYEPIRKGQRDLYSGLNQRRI
T2 sequence (P04234 22-171): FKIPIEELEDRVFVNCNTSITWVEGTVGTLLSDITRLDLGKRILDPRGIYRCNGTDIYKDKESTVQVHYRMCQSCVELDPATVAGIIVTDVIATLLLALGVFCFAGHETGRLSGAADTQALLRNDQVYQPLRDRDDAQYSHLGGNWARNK
T2 sequence (P09693 23-182 partner): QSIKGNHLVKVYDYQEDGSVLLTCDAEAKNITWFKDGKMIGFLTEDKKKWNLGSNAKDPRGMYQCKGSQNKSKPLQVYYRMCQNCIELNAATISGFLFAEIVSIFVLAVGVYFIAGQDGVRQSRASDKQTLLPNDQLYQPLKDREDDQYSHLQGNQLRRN
T2 sequence (P20963 22-164 partner): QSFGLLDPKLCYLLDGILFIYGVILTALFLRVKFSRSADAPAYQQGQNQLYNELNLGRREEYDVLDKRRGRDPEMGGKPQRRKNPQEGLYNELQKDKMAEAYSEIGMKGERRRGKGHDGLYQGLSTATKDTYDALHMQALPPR
Protocol: A. Briefly, flow cytometric analysis (i.e. fluorescence-activated cell sorting, or FACS) was utilized to determine binding of bispecific antibodies to Jurkat cells or cells expressing human MUC16, followed by detection with a phycoerythrin (PE)-labeled or APC-labeled anti-human IgG antibody. Briefly, 2×10^5 cells/well were incubated for 30 minutes at 4° C. with a serial dilution ranging from 1.33E-07M to 8.03E-12M of each test antibody or isotype control (antibody of same isotype that binds a different antigen with no cross-reactivity to MUC16 or CD3). After incubation, the cells were washed twice with cold PBS containing 1% filtered FBS and a PE-conjugated or APC-conjugated anti-human secondary antibody was added to the cells and incubated for an additional 30 minutes. Wells containing no antibody or secondary only were also used as controls. After incubation, cells were washed, re-suspended in 200 μL cold PBS containing 1% filtered FBS and analyzed by flow cytometry on a BD FACS Canto II.
as §1, §2

[2] = mouse, in vivo
OVCAR-3/Luc = test: OVCAR-3 model study 1 (xenogenic, BLI); assay type: in vivo, mouse (NSG); conditions: Day 6, before dosing started (baseline)
Protocol: In further experiments, the in vivo efficacy of an anti-MUC16/anti-CD3 bispecific antibody was evaluated in xenogenic and syngeneic tumor models. For the first xenogenic model, NSG mice were injected intraperitoneally (IP) with OVCAR-3/Luc cells previously passaged in vivo (Day 0) eleven days after engraftment with human PBMCs. Mice were treated IP with 0.01, 0.1, or 0.5 mg/kg BSMUC16/CD3-001, or administered 0.5 mg/kg non-binding control or CD3-binding control on Days 6, 10, 13, 16, and 21. Tumor burden was assessed by BLI on Days 6, 14, and 20 post tumor implantation. […] For the second xenogenic model, NSG mice were injected with OVCAR-3/Luc cells previously passaged in vivo (Day 0) thirteen days after engraftment with human PBMCs and a second batch of PBMCs were transferred on Day 4. Mice were treated intravenously (IV) with 0.1, 0.5, 1, or 5 mg/kg BSMUC16/CD3-005 or administered 5 mg/kg non-binding control or CD3-binding control on Days 5, 8, 12, 15, 19 and 22. Tumor burden was assessed by BLI on Days 4, 11, 18 and 25. […] To examine efficacy in an immune-competent model, the murine CD3 gene was replaced with human CD3 and a portion of the mouse MUC16 gene was replaced with the human sequence. […]
Ascites cells from the OVCAR-3/Luc cell line, previously passaged in vivo, were administered IP into the NSG mice previously engrafted with human PBMCs. BLI was measured as a read-out for tumor growth several days after OVCAR-3/Luc implantation and at multiple times during study. […]
Bioluminescence imaging was used to measure tumor burden. Mice were injected IP with 150 mg/kg (as determined by body weights at the start of the experiment) of the luciferase substrate D-luciferin suspended in PBS. […] Regions of interest were drawn around each tumor mass and photon intensities were recorded as p/s/cm^2/sr. […] Statistical significance for the BLI results was determined using an unpaired nonparametric Mann-Whitney t-test. Fold changes were calculated by the formula: (Day 20-Day 6)/Day 6 for study 1 and (Day 25-Day 4)/Day 4 for study 2.

[3] = molecular target: T3, soluble monomeric human MUC16 (hMUC16.mmh, last five SEA domains, SEQ ID: 1902) (Homo sapiens, UniProt Q8WXI7); test: Surface plasmon resonance (BIACORE) binding to hMUC16 fragment at 25° C.
T3 construct: mmh (myc-myc-hexahistidine)
T3 sequence (Q8WXI7 with tags, fused parts or gaps): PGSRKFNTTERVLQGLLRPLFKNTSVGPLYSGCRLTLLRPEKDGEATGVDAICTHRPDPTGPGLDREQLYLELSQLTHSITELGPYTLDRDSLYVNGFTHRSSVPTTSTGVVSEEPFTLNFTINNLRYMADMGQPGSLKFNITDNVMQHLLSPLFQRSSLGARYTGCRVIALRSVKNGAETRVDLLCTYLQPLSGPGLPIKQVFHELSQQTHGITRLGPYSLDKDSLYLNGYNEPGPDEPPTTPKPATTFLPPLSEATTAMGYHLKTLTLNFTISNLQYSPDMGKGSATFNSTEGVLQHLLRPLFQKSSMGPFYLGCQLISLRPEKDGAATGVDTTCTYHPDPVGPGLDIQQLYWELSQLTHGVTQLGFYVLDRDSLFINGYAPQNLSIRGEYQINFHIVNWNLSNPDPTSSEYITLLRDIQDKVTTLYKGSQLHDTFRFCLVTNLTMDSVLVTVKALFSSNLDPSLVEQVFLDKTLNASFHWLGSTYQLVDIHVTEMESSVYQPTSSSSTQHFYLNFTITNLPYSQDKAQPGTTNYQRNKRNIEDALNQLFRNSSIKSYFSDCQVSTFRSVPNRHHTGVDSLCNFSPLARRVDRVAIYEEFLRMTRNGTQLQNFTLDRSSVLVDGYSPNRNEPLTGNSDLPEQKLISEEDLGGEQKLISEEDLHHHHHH

[4] = molecular target: T4, PC3/MUC16 short (nub portion of MUC16, amino acids 13,810-14,507) (Homo sapiens, UniProt Q8WXI7); test: IHC staining of FFPE cell pellets: PC3/MUC16 short; assay type: binding
T4 construct: expressed in transfected cells; host or cells: PC3/ATCC (prostate cancer line)
T4 sequence (Q8WXI7 13810-14507 limits assumed): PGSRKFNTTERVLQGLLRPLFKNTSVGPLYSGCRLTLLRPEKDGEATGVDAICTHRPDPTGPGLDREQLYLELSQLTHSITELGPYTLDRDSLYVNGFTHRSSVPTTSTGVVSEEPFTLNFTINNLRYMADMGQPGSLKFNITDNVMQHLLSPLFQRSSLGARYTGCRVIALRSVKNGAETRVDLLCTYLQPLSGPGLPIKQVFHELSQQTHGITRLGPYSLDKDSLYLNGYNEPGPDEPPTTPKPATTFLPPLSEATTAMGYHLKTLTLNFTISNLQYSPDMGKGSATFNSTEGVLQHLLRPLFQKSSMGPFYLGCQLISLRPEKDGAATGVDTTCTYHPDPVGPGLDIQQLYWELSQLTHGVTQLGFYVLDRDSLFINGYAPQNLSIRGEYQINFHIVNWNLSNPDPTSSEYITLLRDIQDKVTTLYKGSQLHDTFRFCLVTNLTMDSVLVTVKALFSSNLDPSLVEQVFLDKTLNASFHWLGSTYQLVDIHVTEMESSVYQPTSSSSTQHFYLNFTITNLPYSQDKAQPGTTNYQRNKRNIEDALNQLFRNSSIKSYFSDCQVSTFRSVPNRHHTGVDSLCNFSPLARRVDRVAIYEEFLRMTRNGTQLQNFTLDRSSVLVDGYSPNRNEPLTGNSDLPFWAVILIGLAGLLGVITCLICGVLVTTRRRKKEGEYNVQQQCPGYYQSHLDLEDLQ

[5] = Human Fc anti-MUC16 antibodies (H1H), Table 5B
[6] = Hybridoma anti-MUC16 antibodies (H1M, H2M, H3M), Table 5A

T1 sequence (Q95LI5 22-198): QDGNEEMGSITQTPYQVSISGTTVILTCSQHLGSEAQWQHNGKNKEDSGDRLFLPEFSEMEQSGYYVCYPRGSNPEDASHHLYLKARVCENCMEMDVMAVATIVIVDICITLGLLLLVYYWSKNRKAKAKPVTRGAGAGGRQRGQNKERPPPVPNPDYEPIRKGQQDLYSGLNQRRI
T1 sequence (Q95LI8 22-171): as the sequence (P04234 22-171) above, with I5V, N15K, I20V, S32T, D33N, I34N, T64A, S74N, V83L, H141R counted along it

FACS binding titration EC50, Cynomolgus T cells (Cynomolgus T cells (CD3)): No Binding
FACS binding titration EC50, Jurkat ([1]; Table 7A experiment): Very weak
binding to CD3-expressing cells (FACS) ([1]; text summary of Tables 7A and 7B, human and monkey CD3-expressing cells): weak-to-no binding
B1: BSMUC16/CD3-002: anti-MUC16×CD3 bispecific, IgG1 Fc; H1H8767P HCVR (SEQ 18), CD3-VH-G5 (SEQ 1762), common LCVR SEQ 26 (antibody, V domains shown)
VH 1: QVQLVESGGGLVKPGGSLRLSCAASGFTFSNYYMSWVRQAPGKGLEWISYISGRGSTIFYADSVKGRITISRDNAKNSLFLQMNSLRAEDTAVYFCVKDRGGYSPYWGQGTLVTVSS
VH 2: EVQLVESGGGLVQPGRSLRLSCAASGFTFDDYSMHWVRQAPGKGLEWVSGISWNSGSIGYADSVKGRFTISRDNAKNSLYLQMNSLRAEDTALYYCAKDGSGYGKFYYYGMDVWGQGTTVTVSS
VL: [… about 100 residues …]PITFGQGTRLEIK

B2: BSMUC16/CD3-001: anti-MUC16×CD3 bispecific, IgG1 Fc; H1H8767P HCVR (SEQ 18), CD3-VH-G (SEQ 1730), common LCVR SEQ 26 (antibody, V domains shown)
VH 1: QVQLVESGGGLVKPGGSLRLSCAASGFTFSNYYMSWVRQAPGKGLEWISYISGRGSTIFYADSVKGRITISRDNAKNSLFLQMNSLRAEDTAVYFCVKDRGGYSPYWGQGTLVTVSS
VH 2: EVQLVESGGGLVQPGRSLRLSCAASGFTFDDYSMHWVRQAPGKGLEWVSGISWNSGSKGYADSVKGRFTISRDNAKNSLYLQMNSLRAEDTALYYCAKYGSGYGKFYHYGLDVWGQGTTVTVSS
VL: [… about 100 residues …]PITFGQGTRLEIK
Terminal antibody concentration, fold less than BSMUC16/CD3-005 [2]: ~22 fold
Avg Radiance 6 days post-implantation (median ± SEM) (OVCAR-3/Luc; 0.01 mg/kg group): 8.77e+05 ± 7.91e+04 p/s/cm2^2/sr
Avg Radiance 6 days post-implantation (median ± SEM) (OVCAR-3/Luc; 0.1 mg/kg group): 6.31e+05 ± 1.10e+05 p/s/cm2^2/sr
Avg Radiance 6 days post-implantation (median ± SEM) (OVCAR-3/Luc; 0.5 mg/kg group): 7.64e+05 ± 1.19e+05 p/s/cm2^2/sr

B3: H1H8767P: anti-MUC16 antibody, human IgG1 Fc; HCVR/LCVR SEQ ID NOs: 18/26 (antibody, V domains shown)
VH: QVQLVESGGGLVKPGGSLRLSCAASGFTFSNYYMSWVRQAPGKGLEWISYISGRGSTIFYADSVKGRITISRDNAKNSLFLQMNSLRAEDTAVYFCVKDRGGYSPYWGQGTLVTVSS
VL: [… about 100 residues …]PITFGQGTRLEIK
ka [3, 5]: 117000 M⁻¹ s⁻¹
kd [3, 5]: 0.000418 s⁻¹

B4: H2M7138N: anti-MUC16 hybridoma antibody, mIgG2; HCVR/LCVR SEQ ID NOs: 314/322; nub binder (antibody, V domains shown)
VH: QVQLVQSGAEVKKPGASVKVSCKASGYTFTSSDINWVRQATGQGLEWVGWMNPNYGYTGSARKFQDRVTMTRNTSLSTAYLELHSLRSEDTAVYYCARVTYCSSVTSCFRPFTYWGQGTLVTVSA
VL: [… about 100 residues …]PITFGQGTRLEIK
IHC binding to cells expressing the nub portion of MUC16 without the repeat regions (PC3/MUC16 short) [4]: positive binding
ka [3, 6]: 74100 M⁻¹ s⁻¹
kd [3, 6]: 9.25e-05 s⁻¹

B5: H1H8790P: anti-MUC16 antibody, human IgG1 Fc; HCVR/LCVR SEQ ID NOs: 66/74 (antibody, V domains shown)
VH: EVQLVESGGGLVQPGGSLRLSCEASGFTFSNYAMSWVRQAPGKGLEWVSGMSGSGTYPYYADSVKGRFTISRDNSKNMLYLQMNSLRVKDTAVYYCAKDGVDTAMILDTFDLWGQGTMVTVSS
VL: [… about 100 residues …]
ka [3, 5]: 101000 M⁻¹ s⁻¹
kd [3, 5]: 0.000761 s⁻¹

One block for each molecule: values may come before it.
